Results taken from patent publication US20250289788A1, “HALOALKYL SULFONANILIDE COMPOUND AND HERBICIDE CONTAINING THE SAME” (SDS BIOTECH K.K., priority 2022, published 2025).
Some of these results come from one statement about several compounds together. At least one compound was matched to its structure with a doubt left.

How the values were obtained:
[1] = system: Ammannia multiflora (AM); assay: Test Example 1: herbicidal effect test using paddy field flooding treatment; assay type: in vivo; details: water surface application, 21 days after treatment
[2] = system: Monochoria vaginalis (MV); assay: as above; assay type: in vivo; details: water surface application, 21 days after treatment

SMILES: O=C1c2c(cc(F)c([N+](=O)[O-])c2F)CCN1Cc1ccccc1NS(=O)(=O)C(F)(F)F [Compound 3-85]
- herbicidal efficacy (degree (%) of suppression of growth of terrestrial part) ([1]; dose 500 g a.i./ha): ≥ 80%

SMILES: CN(C)c1ccc(F)c2c1C(=O)N(Cc1ccccc1NS(=O)(=O)C(F)(F)F)CC2 [Compound 3-74]
- herbicidal efficacy (degree (%) of suppression of growth of terrestrial part) ([2]; dose 500 g a.i./ha): ≥ 80%

SMILES: O=C1c2cc(Cl)ccc2CCN1Cc1ccccc1NS(=O)(=O)C(F)(F)F [Compound 3-20]
- herbicidal efficacy (degree (%) of suppression of growth of terrestrial part) ([2]; dose 250 g a.i./ha): ≥ 80%

SMILES: O=C1c2c(cccc2N2C(=O)c3ccccc3C2=O)CN1Cc1ccccc1NS(=O)(=O)C(F)(F)F [Compound 2-30]
- herbicidal efficacy (degree (%) of suppression of growth of terrestrial part) ([2]; dose 500 g a.i./ha): ≥ 80%

SMILES: O=C1c2c(cccc2OCc2ccccc2)CN1Cc1ccccc1NS(=O)(=O)C(F)(F)F [Compound 2-24]
- herbicidal efficacy (degree (%) of suppression of growth of terrestrial part) ([1]; dose 500 g a.i./ha): ≥ 80%

SMILES: O=C1c2c(F)ccc(F)c2CCN1Cc1ccccc1N(C(=O)Oc1ccccc1)S(=O)(=O)C(F)(F)F [Compound 3-194]
- herbicidal efficacy (degree (%) of suppression of growth of terrestrial part) ([1]; dose 63 g a.i./ha): ≥ 80%

SMILES: CCOC(=O)N(c1ccccc1CN1C(=O)Cc2cc(Br)ccc21)S(=O)(=O)C(F)(F)F [Compound 8-10]
- herbicidal efficacy (degree (%) of suppression of growth of terrestrial part) ([1]; dose 1000 g a.i./ha): ≥ 80%

SMILES: O=C1c2c(F)ccc(F)c2CCN1Cc1ccccc1N(C(=O)OCc1ccccc1)S(=O)(=O)C(F)(F)F [Compound 3-213]
- herbicidal efficacy (degree (%) of suppression of growth of terrestrial part) ([1]; dose 63 g a.i./ha): ≥ 80%

SMILES: CCOC(=O)N(c1ccccc1CN1CCc2cccc(O)c2C1=O)S(=O)(=O)C(F)(F)F [Compound 3-143]
- herbicidal efficacy (degree (%) of suppression of growth of terrestrial part) ([2]; dose 500 g a.i./ha): ≥ 80%

SMILES: CC(C)OC(=O)N(c1ccccc1CN1CCc2c(F)ccc(F)c2C1=O)S(=O)(=O)C(F)(F)F [Compound 3-162]
- herbicidal efficacy (degree (%) of suppression of growth of terrestrial part) ([1]; dose 63 g a.i./ha): ≥ 80%

SMILES: O=C1c2cc([N+](=O)[O-])c(F)cc2CCN1Cc1ccccc1NS(=O)(=O)C(F)(F)F [Compound 3-82]
- herbicidal efficacy (degree (%) of suppression of growth of terrestrial part) ([1]; dose 250 g a.i./ha): ≥ 80%

SMILES: O=C1c2ccc(F)cc2CCCN1Cc1ccccc1NS(=O)(=O)C(F)(F)F [Compound 5-4]
- herbicidal efficacy (degree (%) of suppression of growth of terrestrial part) ([2]; dose 500 g a.i./ha): ≥ 80%

SMILES: CCOC(=O)Oc1ccc2c(c1)C(=O)N(Cc1ccccc1NS(=O)(=O)C(F)(F)F)CC2 [Compound 3-31]
- herbicidal efficacy (degree (%) of suppression of growth of terrestrial part) ([1]; dose 63 g a.i./ha): ≥ 80%

SMILES: CCOC(=O)N(c1ccc(Cl)cc1CN1CCc2cccc(Cl)c2C1=O)S(=O)(=O)C(F)(F)F [Compound 4-25]
- herbicidal efficacy (degree (%) of suppression of growth of terrestrial part) ([1]; dose 63 g a.i./ha): ≥ 80%

SMILES: CSCCOC(=O)N(c1ccccc1CN1CCc2c(F)ccc(F)c2C1=O)S(=O)(=O)C(F)(F)F [Compound 3-236]
- herbicidal efficacy (degree (%) of suppression of growth of terrestrial part) ([1]; dose 250 g a.i./ha): ≥ 80%

SMILES: O=C(Oc1ccc2c(c1)C(=O)N(Cc1ccccc1NS(=O)(=O)C(F)(F)F)CC2)c1ccccc1 [Compound 3-32]
- herbicidal efficacy (degree (%) of suppression of growth of terrestrial part) ([1]; dose 125 g a.i./ha): ≥ 80%

SMILES: O=C1c2c(cc(Cl)c([N+](=O)[O-])c2Cl)CCN1Cc1ccccc1NS(=O)(=O)C(F)(F)F [Compound 3-86]
- herbicidal efficacy (degree (%) of suppression of growth of terrestrial part) ([1]; dose 125 g a.i./ha): ≥ 80%

SMILES: C#CCOc1cccc2c1CN(Cc1ccccc1NS(=O)(=O)C(F)(F)F)C2=O [Compound 2-50]
- herbicidal efficacy (degree (%) of suppression of growth of terrestrial part) ([1]; dose 250 g a.i./ha): ≥ 80%

SMILES: Cc1cc2c(cc1Cl)CCN(Cc1ccccc1NS(=O)(=O)C(F)(F)F)C2=O [Compound 3-81]
- herbicidal efficacy (degree (%) of suppression of growth of terrestrial part) ([1]; dose 125 g a.i./ha): ≥ 80%

SMILES: CSc1ncc2c(n1)CN(Cc1ccccc1NS(=O)(=O)C(F)(F)F)C2=O [Compound 6-3]
- herbicidal efficacy (degree (%) of suppression of growth of terrestrial part) ([1]; dose 500 g a.i./ha): ≥ 80%

SMILES: O=C1c2c(I)cccc2CCN1Cc1ccccc1NS(=O)(=O)C(F)(F)F [Compound 3-5]
- herbicidal efficacy (degree (%) of suppression of growth of terrestrial part) ([1]; dose 250 g a.i./ha): ≥ 80%

SMILES: COc1c(Br)c(Br)cc2c1CN(Cc1ccccc1NS(=O)(=O)C(F)(F)F)C2=O [Compound 2-52]
- herbicidal efficacy (degree (%) of suppression of growth of terrestrial part) ([1]; dose 250 g a.i./ha): ≥ 80%

SMILES: O=C1c2c(F)ccc(F)c2CCN1Cc1ccccc1N(CCC1COCCO1)S(=O)(=O)C(F)(F)F (stereo not drawn) [Compound 3-93]
- herbicidal efficacy (degree (%) of suppression of growth of terrestrial part) ([1]; dose 250 g a.i./ha): ≥ 80%

SMILES: O=C1c2cc(OS(=O)(=O)C(F)(F)F)ccc2CCN1Cc1ccccc1NS(=O)(=O)C(F)(F)F [Compound 3-34]
- herbicidal efficacy (degree (%) of suppression of growth of terrestrial part) ([1]; dose 63 g a.i./ha): ≥ 80%

SMILES: CCOCN(c1ccccc1CN1CCc2c(F)ccc(F)c2C1=O)S(=O)(=O)C(F)(F)F [Compound 3-95]
- herbicidal efficacy (degree (%) of suppression of growth of terrestrial part) ([1]; dose 250 g a.i./ha): ≥ 80%

SMILES: O=C1c2c(cccc2OS(=O)(=O)c2ccccc2)CN1Cc1ccccc1NS(=O)(=O)C(F)(F)F [Compound 2-19]
- herbicidal efficacy (degree (%) of suppression of growth of terrestrial part) ([1]; dose 63 g a.i./ha): ≥ 80%

SMILES: CC(C)(C)[Si](OCCOC(=O)N(c1ccccc1CN1CCc2c(F)ccc(F)c2C1=O)S(=O)(=O)C(F)(F)F)(c1ccccc1)c1ccccc1 [Compound 3-231]
- herbicidal efficacy (degree (%) of suppression of growth of terrestrial part) ([1]; dose 250 g a.i./ha): ≥ 80%
